Laboratory results published in US20070020283A1 (Regeneron, published 2007).
Several values for one entry are separate records, joined by “and”; a condition that tells them apart may be missing. Equal entries are not always repeated.

T1: human interferon γ (human, UniProt P01579 24-166, limits assumed)
T1 construct: Injected in solution over captured fusion proteins (BiaCore); Recombinant human IFNγ at 4 pM in the luciferase bioassays; also called IFNγ; human IFNγ
T1 sequence (looked up): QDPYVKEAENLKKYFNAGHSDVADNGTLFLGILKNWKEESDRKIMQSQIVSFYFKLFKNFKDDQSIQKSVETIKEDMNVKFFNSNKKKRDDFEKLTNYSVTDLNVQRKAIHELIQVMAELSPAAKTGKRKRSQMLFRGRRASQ

B1: hIFNγRα(1-239).TG.hIFNγRβ.SG.hFc (Fc fusion)
chain: EMGTADLGPSSVPTPTNVTIESYNMNPIVYWEYQIMPQVPVFTVEVKNYGVKNSEWIDACINISHHYCNISDHVGDPSNSLWVRVKARVGQKESAYAKSEEFAVCRDGKIGPPKLDIRKEEKQIMIDIFHPSVFVNGDEQEVDYDPETTCYIRVYNVYVRMNGSEIQYKILTQKEDDCDEIQCQLAIPVSSLNSQYCVSAEGVLHVWGVTTEKSKEVCITIFTGSQLPAPQHPKIRLYNAEQVLSWEPVALSNSTRPVVYRVQFKYTDSKWFTADIMSIGVNCTQITATECDFTAASPSAGFPMDFNVTLRLRAELGALHSAWVTMPWFQHYRNVTVGPPENIEVTPGEGSLIIRFSSPFDIADTSTAFFCYYVHYWEKGGIQQVKGPFRSNSISLDNLKPSRVYCLQVQAQLLWNKSNIFRVGHLSNISCYETMADASTELQSG[… human IgG1 Fc …]
notes: Dimeric construct from CHO supernatant; also called pCTR 2842
B2: hIFNγRα(1-239).TG.hIFNγRβ(C174S).SG.hFc (Fc fusion)
chain: EMGTADLGPSSVPTPTNVTIESYNMNPIVYWEYQIMPQVPVFTVEVKNYGVKNSEWIDACINISHHYCNISDHVGDPSNSLWVRVKARVGQKESAYAKSEEFAVCRDGKIGPPKLDIRKEEKQIMIDIFHPSVFVNGDEQEVDYDPETTCYIRVYNVYVRMNGSEIQYKILTQKEDDCDEIQCQLAIPVSSLNSQYCVSAEGVLHVWGVTTEKSKEVCITIFTGSQLPAPQHPKIRLYNAEQVLSWEPVALSNSTRPVVYRVQFKYTDSKWFTADIMSIGVNCTQITATECDFTAASPSAGFPMDFNVTLRLRAELGALHSAWVTMPWFQHYRNVTVGPPENIEVTPGEGSLIIRFSSPFDIADTSTAFFSYYVHYWEKGGIQQVKGPFRSNSISLDNLKPSRVYCLQVQAQLLWNKSNIFRVGHLSNISCYETMADASTELQSG[… human IgG1 Fc …]

What was measured:
[1] = target: T1, human interferon γ; assay: BiaCore (SPR), fusion from CHO supernatant captured by anti-human Fc, human IFNγ injected
Description: The affinity of the interferon γ-binding fusion polypeptides for human interferon γ was measured using a BlAcore 2000™ or BlAcore 3000™, as described in WO 00/75319, herein specifically incorporated by reference in its entirety. Briefly, the IFNγ-specific polypeptides were produce as small-scale supernatants by transiently transfecting CHO cells, using Lipofectamine/LIPO Plus® (Life Technologies), with DNA constructs encoding the proteins. Supernatants were collected after 72 hours and protein expression was measured by Western blotting with anti-human Fc HRP-conjugated antibody (Promega) and visualized by ECL (Pierce). Briefly, 5.4×10⁵ CHOK1 cells per well of a 6 well tissue culture dish were transfected using 1 μg of DNA and 5 μl of lipofectamine in OptiMEM™ (Gibco). After 12 h the cells were washed with OptiMEM™ and 2 ml of CHO serum free medium (Gibco) was added. After 60 h and 72 h the media was collected and centrifuged to remove cellular debris. For the BiaCore™ analysis, the IFNγ-binding fusion polypeptides from the transiently transfected CHO supernatants were captured onto the chip surface using anti-human Fc antibodies. Various concentrations of human IFNγ are injected over the surface and the time course of association and dissociation are monitored. Kinetic analyses using BIA evaluation software were performed to obtain the association and dissociation rate constants.

[2] = target: T1, human interferon γ; assay: cell-based or functional assay

Binder	Kd [1]	IC50 (M), GAS-luciferase bioassay in HEK293 cells [2]	IC50 (M), ISRE-luciferase bioassay in HEK293 cells [2]
B1	0.0129 nM	2.02e-10 M and 3.8e-10 M	7.2e-11 M
B2		4.52e-10 M and 4e-10 M	1.18e-10 M and 1.54e-10 M
